PubChem BioAssay AID1460 (National Center for Advancing Translational Sciences (NCATS), 2008)
Screen size: about 270,000 compounds; about 5,800 (2.1%) were called active. The inconclusive results got no clear call from the source; some entries with a clear call stand among them for comparison. The call rests on the fitted dose curve; in most records, active means well fitted inhibition curve with a large enough effect; inconclusive means small, poorly fitted or top-dose-only effect; inactive means flat fitted curve, though single readings scatter. A potency beside an inconclusive call is a rough fit, not a confirmed value.

Molecular target: Microtubule-associated protein tau (Homo sapiens) (UniProt P10636)
Assay: qHTS for Inhibitors of Tau Fibril Formation, Thioflavin T Binding; further: nearly all actives have a fitted effect of over 55% in size
Details: recombinant tau K18 P301L (four-repeat tau fragment), heparin-induced fibrillization, ThT fluorescence; series mostly up to 57.4 µM; activity, negative = inhibition: at the top concentration
In short: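 Aggregation was driven by heparin (20 uM final) acting on recombinant tau […] bearing P301L in 100 mM sodium acetate pH 7; fibrils were detected with Thioflavin T.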
On the % scale 0 is the no-effect control and ±100 the full control effect; potency means the concentration at half of the fitted maximal effect; tags describe the fitted curve by direction and shape.

Sequence of UniProt P10636 (P10636 whole entry, looked up): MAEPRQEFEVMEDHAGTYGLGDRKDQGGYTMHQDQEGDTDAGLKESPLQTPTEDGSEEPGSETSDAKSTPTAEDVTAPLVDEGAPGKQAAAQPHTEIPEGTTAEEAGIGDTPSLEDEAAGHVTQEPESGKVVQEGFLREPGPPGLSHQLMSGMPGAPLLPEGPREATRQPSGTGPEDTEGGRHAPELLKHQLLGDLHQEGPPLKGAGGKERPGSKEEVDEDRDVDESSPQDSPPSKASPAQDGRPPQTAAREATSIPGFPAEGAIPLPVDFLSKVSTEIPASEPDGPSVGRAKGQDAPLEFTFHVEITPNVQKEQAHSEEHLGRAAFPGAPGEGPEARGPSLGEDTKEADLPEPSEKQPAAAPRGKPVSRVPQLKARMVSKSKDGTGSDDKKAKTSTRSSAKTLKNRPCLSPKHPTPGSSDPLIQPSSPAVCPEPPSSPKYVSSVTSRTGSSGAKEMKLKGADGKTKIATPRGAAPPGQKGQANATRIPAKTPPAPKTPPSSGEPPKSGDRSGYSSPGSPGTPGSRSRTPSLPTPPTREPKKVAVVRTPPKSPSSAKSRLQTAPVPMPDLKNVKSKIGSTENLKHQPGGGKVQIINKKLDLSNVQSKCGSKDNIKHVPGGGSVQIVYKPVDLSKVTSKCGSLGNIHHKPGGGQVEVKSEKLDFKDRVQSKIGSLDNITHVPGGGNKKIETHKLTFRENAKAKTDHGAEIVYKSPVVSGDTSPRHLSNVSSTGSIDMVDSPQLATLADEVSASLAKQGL

SMILES | Potency | activity, negative = inhibition
Cc1ccc(/C(C#N)=C\c2ccc(N3CCOCC3)o2)cc1 | active: 10 µM | –
CCCn1c(=O)c2sccc2n2c(CCCC(=O)Nc3ccccc3F)nnc12 | – | inactive: -2.91%
COc1ccc(-c2cc(C)no2)cc1S(=O)(=O)N1CC(C)Oc2ccccc21 (stereo not drawn) | – | inactive: -4.92%
CCOC(=O)C1=C(C)NC2=C(C(=O)c3ccccc32)C1c1ccc([N+](=O)[O-])o1 (stereo not drawn) | inconclusive: 15.8 µM [inhibitor, partial curve] | –
Cc1c(C(=O)N2CCN(c3ccc(F)cc3)CC2)sc2nc(-c3ccccc3)cn12 | – | inactive: -12.7%
O=C(CSc1ccc(-c2cccs2)nn1)Nc1cccc(F)c1 | – | inactive: -15.6%
Cc1ccccc1C(=O)c1cccn1CC(=O)NCCN1CCN(c2cccc(C)c2C)CC1 | inconclusive: 31.6 µM [inhibitor, partial curve] | –
O=S(=O)(Nc1ccc(N2CCOCC2)cc1)c1cccs1 | inconclusive: 31.6 µM [inhibitor, single point] | –
N#Cc1ccc(OCc2nnc(-c3ccc([N+](=O)[O-])cc3)o2)cc1 | inconclusive: 1.12 µM [inhibitor, partial curve] | –
C/C(=N/NC(=O)CNc1ccc(C)cc1)c1ccc(Cl)cc1 | inconclusive: 31.6 µM [inhibitor, partial curve] | –
NC1=NC(=Nc2cccc(S(=O)(=O)N3CCOCC3)c2)c2ccccc21 | – | inactive: -0.916%
C=CCOC(=O)C1=C(C)NC(C)=C(C(=O)OCC=C)C1/C=C/c1ccccc1 | inconclusive: 1.78 µM [inhibitor, full curve] | –
O=C(NCc1ccc(Cl)cc1)C1CCN(S(=O)(=O)c2ccc3c(c2)CCCN3C(=O)C2CCC2)CC1 | – | inactive: -11.1%
CCOc1cc(/C=C2/NC(=S)NC2=O)ccc1OCc1ccc([N+](=O)[O-])cc1 | inconclusive: 2.24 µM [inhibitor, full curve] | –
COc1cc(NC(=O)c2ccccc2)c(OC)cc1NC(=O)CN1CCOCC1 | inconclusive: 25.1 µM [inhibitor, partial curve] | –
COCCNC(=O)CSc1nc2cc3c(cc2c(=O)n1Cc1ccco1)OCO3 | – | inactive: -14%
O=C(CSc1nc(O)c(C/C=C/c2ccccc2)c(=O)[nH]1)Nc1cccc(F)c1 | inconclusive: 17.8 µM [inhibitor, partial curve] | –
COCCN(C(=O)/C=C/c1ccccc1)c1nnc(-c2cccnc2)s1 | – | inactive: -5.99%
CC(=O)n1cc(N(C(=O)CCl)c2ccc([N+](=O)[O-])cc2)c2ccccc21 | active: 28.2 µM | –
NNC(=O)c1ccc(COc2ccc3ccccc3c2)o1 | inconclusive: 7.08 µM [inhibitor, partial curve] | –
COc1ccc(-c2n[nH]c(C)c2-c2ccc(Cl)cc2)c(O)c1OC | inconclusive: 35.5 µM [inhibitor, single point] | –
O=C(O)C1CSC(c2ccncc2)N1 (stereo not drawn) | inconclusive: 31.6 µM [inhibitor, single point] | –

SMILES | Potency | activity, negative = inhibition
N#Cc1c(N2CCCCC2)nc(N)c2c(N)nc(SCC(=O)O)cc12 | inconclusive: 17.8 µM [inhibitor, partial curve] | –
O=C(O)CCN1C(=O)/C(=C\c2ccc(-c3nc4ccccc4s3)o2)SC1=S | active: 2 µM | –
CCOc1ccc(-c2ccc(/C=C3/C(=N)N4C=CSC4=NC3=O)o2)c([N+](=O)[O-])c1 | inconclusive: 0.891 µM [inhibitor, full curve] | –
Cn1nc(-c2ccc(N3CCN(CCO)CC3)c([N+](=O)[O-])c2)c2ccccc2c1=O | – | inactive: 0.408%
CC(C)Cc1c(O)nc(SCC(=O)Nc2ccc3c(c2)CCC3)[nH]c1=O | – | inactive: -11.5%
Cc1ccc(NC(=O)Nc2ccc3nc(N4CCN(C)CC4)cc(C)c3c2)cc1C | active: 8.91 µM | –
CCOc1ccc(-c2cc(CCCC(=O)NCCc3ccc(OCC)c(OCC)c3)no2)cc1 | inconclusive: 2.51 µM [inhibitor, full curve] | –
C[C@@H](NC(=O)CN(c1ccccc1)S(=O)(=O)N(C)C)c1ccccc1 | – | inactive: 4.28%
Cc1c(Cl)cccc1NC(=O)CSCc1cc(=O)[nH][nH]1 | inconclusive: 28.2 µM [inhibitor, partial curve] | –
COc1ccc(NC(=O)CSc2nc(C)cc(C)c2C(=O)Nc2cccc(C)c2)cc1 | – | inactive: 10.1%
COc1ccc2cc3cc(C(=O)Nc4ccccc4C)oc3nc2c1 | inconclusive: 4.47 µM [inhibitor, full curve, poor fit] | –
Cc1cccc(N2CCN(C(=O)C3CCN(S(=O)(=O)c4cccc5nsnc45)CC3)CC2C)c1 (stereo not drawn) | inconclusive: 20 µM [inhibitor, partial curve] | –
CCO[C@@H]1OC(C(=O)N2CCCCCCC2)=C[C@H](c2ccc3c(c2)OCO3)[C@H]1CCCO | inconclusive: 0.355 µM [activator, single point] | –
c1cncc(-c2nnc(-c3cccnc3)nn2)c1 | inconclusive: 39.8 µM [inhibitor, single point] | –
O=C(c1ccccc1Cl)N1CCN(CCc2ccccn2)CC1 | – | inactive: 4.17%
O=C(CSc1nc(-c2ccco2)nc2cc(=O)[nH]n12)Nc1ccccc1F | inconclusive: 17.8 µM [inhibitor, single point] | –
Cc1ccc2nc(-c3sc4nc(C)cc(C)c4c3N)[nH]c2c1 | inconclusive: 3.16 µM [inhibitor, full curve] | –
Cc1cccc(CNC(=O)CCCN2C(=O)COc3ccc(C)cc32)c1 | – | inactive: -5.86%
CCc1nn(CC(=O)NCCN(CC)CC)c(=O)c2cc3occc3n12 | – | inactive: 0.062%
O=C(CSc1ncc2c(n1)-c1ccccc1N(Cc1ccc(F)cc1)S2(=O)=O)NCc1ccccc1 | – | inactive: 15.6%
CCOC(=O)c1sc(=S)n(-c2cc(OC)ccc2OC)c1N | inconclusive: 35.5 µM [inhibitor, single point] | –
